# This is a noisy data set.
# Assay: amyloid nucleation score relative to library mode (yeast Sup35 reporter selection) (log enrichment difference); higher = more amyloid nucleation; sequences are the first 22 residues of the Bri2 peptide extended by up to 12 random residues
# Conditions: random library (experiment): 1;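 active = nucleation score significantly above 0 at FDR 0.05; inactive = not significantly above 0 or absent from output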
# 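Also: [psi-pin-] Saccharomyces cerevisiae expressing SupN fusions, induced by 100 µM Cu2SO4, selected 7 d at 30 °C without adenine and uracil, scored by deep sequencing of output versus input.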
row,Sequence,amyloid nucleation score
1,EASNCFAIRHFENKFAVETLICDC,inactive
2,EASNCFAIRHFENKFAVETLICDCALGCKKGNIT,7.21
3,EASNCFAIRHFENKFAVETLICDCAPFTPFCRNW,5.21
4,EASNCFAIRHFENKFAVETLICDCEAL,inactive
5,EASNCFAIRHFENKFAVETLICDCEVETRFLDGG,inactive
6,EASNCFAIRHFENKFAVETLICDCGSGNLYFHVA,6.84
7,EASNCFAIRHFENKFAVETLICDCLEVLCQPTSM,inactive
8,EASNCFAIRHFENKFAVETLICDCMATQLEAWVW,inactive
9,EASNCFAIRHFENKFAVETLICDCRGRHLWWCRL,inactive
10,EASNCFAIRHFENKFAVETLICDCRWFRLWVSGM,inactive
11,EASNCFAIRHFENKFAVETLICDCSCKSVVTKAV,6.95
12,EASNCFAIRHFENKFAVETLICDCVDSCYGRICE,inactive
13,EASNCFAIRHFENKFAVETLICDCVVISILLGRT,-0.179
14,EASNCFAIRHFENKFAVETLICDCWNVFCMKIRD,3.73
15,EASNCFAIRHFENKFAVETLICDCYRLSKSFRML,inactive
16,EASNCFAIRHFENKFAVETLICDDCKSAQMHTMG,inactive
17,EASNCFAIRHFENKFAVETLICDDELAFRIRCCW,inactive
18,EASNCFAIRHFENKFAVETLICDDFQVNVTVIAG,inactive
19,EASNCFAIRHFENKFAVETLICDDGHRVVRSPWD,-0.25

row,Sequence,amyloid nucleation score
1,EASNCFAIRHFENKFAVETLICDDLGSFRDSRFA,inactive
2,EASNCFAIRHFENKFAVETLICDDLRSEMLKAWT,inactive
3,EASNCFAIRHFENKFAVETLICDDMANTMIGMGW,5.45
4,EASNCFAIRHFENKFAVETLICDDMFVARNRGLL,inactive
5,EASNCFAIRHFENKFAVETLICDDNVVCGGLKWL,2.81
6,EASNCFAIRHFENKFAVETLICDDSICRMMTHSG,inactive
7,EASNCFAIRHFENKFAVETLICDDSYMSEPRGRC,inactive
8,EASNCFAIRHFENKFAVETLICDDVA,inactive
9,EASNCFAIRHFENKFAVETLICDDWLCWSPNWLT,inactive
10,EASNCFAIRHFENKFAVETLICDDWQDRNAEQWV,inactive
11,EASNCFAIRHFENKFAVETLICDDWRNVYWQCP,3.94
12,EASNCFAIRHFENKFAVETLICDEDYKTQTIGSR,inactive
13,EASNCFAIRHFENKFAVETLICDEGGGWAAWSRQ,0.243
14,EASNCFAIRHFENKFAVETLICDEHVGAGFEK,inactive
15,EASNCFAIRHFENKFAVETLICDEL,inactive
16,EASNCFAIRHFENKFAVETLICDER,inactive
17,EASNCFAIRHFENKFAVETLICDERGLYVAPGAR,inactive
18,EASNCFAIRHFENKFAVETLICDESHCA,inactive

# Same assay, conditions: random library (experiment): 2
row,Sequence,amyloid nucleation score
1,EASNCFAIRHFENKFAVETLICDCDVELLMATYW,-0.231
2,EASNCFAIRHFENKFAVETLICDCFEYSHGYP,1.89
3,EASNCFAIRHFENKFAVETLICDCFSR,5.38
4,EASNCFAIRHFENKFAVETLICDCHDQK,6.59
5,EASNCFAIRHFENKFAVETLICDCHNWCHSCMHG,8.34
6,EASNCFAIRHFENKFAVETLICDCLALTI,inactive
7,EASNCFAIRHFENKFAVETLICDCLSLSCQVFPR,7.6
8,EASNCFAIRHFENKFAVETLICDCPYNGWLDFLV,inactive
9,EASNCFAIRHFENKFAVETLICDCSRVRYKDRPS,6.33
10,EASNCFAIRHFENKFAVETLICDCSVSPIFGCLW,7.41
11,EASNCFAIRHFENKFAVETLICDCVRTTGKRCRY,5.08
12,EASNCFAIRHFENKFAVETLICDDANKLCARLDD,0
13,EASNCFAIRHFENKFAVETLICDDDSSRLVSVER,-0.191
14,EASNCFAIRHFENKFAVETLICDDGLIRLFNEHW,inactive
15,EASNCFAIRHFENKFAVETLICDDLGRFR,inactive
16,EASNCFAIRHFENKFAVETLICDDLNYSMVLCYS,inactive
17,EASNCFAIRHFENKFAVETLICDDNARDWVGGSF,inactive
18,EASNCFAIRHFENKFAVETLICDDRFPCS,inactive
19,EASNCFAIRHFENKFAVETLICDDRSHDLCVIG,inactive
20,EASNCFAIRHFENKFAVETLICDDSM,inactive
21,EASNCFAIRHFENKFAVETLICDDVYLGLVMPYI,6.54
22,EASNCFAIRHFENKFAVETLICDDYERKSICHMW,-0.0488
23,EASNCFAIRHFENKFAVETLICDEAFGVEGSVQV,inactive
24,EASNCFAIRHFENKFAVETLICDEEFSE,inactive
25,EASNCFAIRHFENKFAVETLICDEEKRGQ,inactive
26,EASNCFAIRHFENKFAVETLICDELFKTCDIFYT,2.26

# Same assay, conditions: random library (experiment): 3
row,Sequence,amyloid nucleation score
1,EASNCFAIRHFENKFAVETLICDCAGLRVWTGWP,-0.0945
2,EASNCFAIRHFENKFAVETLICDCGLRP,inactive
3,EASNCFAIRHFENKFAVETLICDCKNCVLRHPGG,8.43
4,EASNCFAIRHFENKFAVETLICDCLLTDVWLGRR,7.35
5,EASNCFAIRHFENKFAVETLICDCLTFVNMCYR,7.75
6,EASNCFAIRHFENKFAVETLICDCPPGAKNRRCQ,7.84
7,EASNCFAIRHFENKFAVETLICDCQSRYTQWKSS,inactive
8,EASNCFAIRHFENKFAVETLICDCWMSHTWNRVP,inactive
9,EASNCFAIRHFENKFAVETLICDDADRRFVFVLQ,0.177
10,EASNCFAIRHFENKFAVETLICDDDLARKLMTHT,2.07
11,EASNCFAIRHFENKFAVETLICDDSDVRDCYSLE,inactive
12,EASNCFAIRHFENKFAVETLICDDTSRGHGSSSA,inactive
13,EASNCFAIRHFENKFAVETLICDE,inactive
14,EASNCFAIRHFENKFAVETLICDEA,inactive
15,EASNCFAIRHFENKFAVETLICDEARCRWKSFEA,inactive
16,EASNCFAIRHFENKFAVETLICDEARTALVRS,inactive
17,EASNCFAIRHFENKFAVETLICDELVCCIWAILQ,5.25
18,EASNCFAIRHFENKFAVETLICDELVDRYLSGYS,inactive
19,EASNCFAIRHFENKFAVETLICDEQGAVVPQGVG,inactive
20,EASNCFAIRHFENKFAVETLICDERCAMSWSLCT,inactive
21,EASNCFAIRHFENKFAVETLICDERGTMYRSWGT,inactive
22,EASNCFAIRHFENKFAVETLICDERLGFVLVSCA,inactive
23,EASNCFAIRHFENKFAVETLICDESQAANWFLGW,inactive

# — the supplement of paper PMC12067230
